Data taken from the supplement of paper PMC11417369.
Some of the results follow.

These sequences were tested on PfAP2-HC AP2 domain (GST-tagged) (assay: gcPBM binding intensity (ln(normalized median fluorescence intensity)); higher = stronger DNA binding).
Procedure, shortened: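 DNA-binding domains from P. falciparum, fused to GST and produced in E. coli, were put on an Agilent 4 × 180k double-stranded probe array for 1 h in 1× PBS holding 1% milk, 0.2 mg/ml BSA, 0.5% salmon testes DNA and 0.03% Triton X-100. Probes were primer-extended, 36 bp long and drawn from intergenic genomic regions, with negative controls included. After Alexa488 anti-GST antibody detection and a 488 nm scan, binding intensity was set as the highest Masliner-normalised natural-log median intensity across replicate spots of either probe orientation.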

In order of falling “gcPBM binding intensity (ln)” value:
1. ATAATATAAATATACACACACACATATATATATATA [CACACA_site2905]  10.8
2. AAAAAAAAAAAAAACACACACACACGCATACACATA [CACACA_site7364]  10.7
3. ATAAATAAAACAAATAGTACAATATAAAAAAAAAGG [XGTACX_site87]  10.1
4. AAAAAATATGCATATACACACATATGTATAAATAAC [CACACA_site7090]  10.1
5. GGGTGCCAAATTAGCACACACATATATACCTGAATT [CACACA_site5551]  10
6. ACAATATCTAGATACACACACATATCTCTCAATCTA [CACACA_site656]  9.98
7. TATACAGATATATATACACACATATATATAAATACA [CACACA_site4383]  9.97
8. TAATAAAACATATATACACACATTATATATACATAT [CACACA_site8495]  9.97
9. ATAAATATTGCGTGCACACACATAATATTTATATAT [CACACA_site7136]  9.95
10. AAAAAGGTTATTGGTACACACATATGTATATAAATA [CACACA_site6402]  9.94
11. CATTTAATAATAACAAGTACACAAAGATGTATAACA [XGTACX_site8315]  9.91
12. TTACATACAATTGGTGTGCACATATATATATATATA  9.89
13. TATAATATTCTATATGCATGTACACCATTCTTTATT [TGCATGCA_site688]  9.89
14. AATTATAAATCTTGCACACAAAAAAAATAATAAAAA [CACACA_site2434]  9.89
15. TCTTTGGTATTTACATGTACATATTCTTAAAAACAT [XGTACX_site3124]  9.88
16. ATGTCATAAAAACATATACACACTTGAAATATAAAA [CACACA_site2329]  9.86
17. TAATAAATAATGGTTACACACAAAATATAAAACTTA [CACACA_site3544]  9.86
18. GGATAAGAGGCATATACACACAATTTAAAAAAATAA [CACACA_site4657]  9.82
19. AATAGTTGCTAAAGGTGTACAATACATTTATTAGAA [XGTACX_site2773]  9.8
20. AATATATATGAAAAAAGTACTCAAGGAATAAAAAAA [XGTACX_site7720]  9.8
21. TTCTTGTATATTCATAGTACATATAATGTCGTGTTA [XGTACX_site8991]  9.79
22. AATTTAAAAAATAATTGTACAAAAAAAAAAAATCAG [XGTACX_site4576]  9.78
23. TATATTTATACTTATACACACATTATTGAATTAACC [CACACA_site934]  9.78
24. TATAGGTATTTGTATACACACAAATGTATATATCTA [CACACA_site6713]  9.74
25. AAAATATTTATTCCTAGTACTTACCATTATATATAT [XGTACX_site363]  9.74
26. AAAAAAAAATGAAAAGAAAAAAAAAGAAAAAAGGGA [CACACA_negctrl_site287]  9.72
27. AAAAAAAAAAAAAAAACACACAAACGCTTTTTTTTT [CACACA_site4545]  9.71
28. CATAAATACTATATATGTACGTAATTTTTAAAACAT [XGTACX_site7710]  9.71
29. TATATATGTATATTTTGTACGTATTTATTTACATGA [XGTACX_site4584]  9.68
30. TATAATATATTCATGTGTACATATATTTCGAACATA [XGTACX_site1754]  9.66
31. TATATATATATATATGTGCGCATTACTTTAAGAATA  9.66
32. AGTGTAAGCTAAGTGGTGCGTTGAATAAGGTTTTTT [GTGCAC_site9951]  9.65
33. ATTTTTTTGTTAATTTGTACATAAAATTTTATTTTA [XGTACX_site7007]  9.65
34. GTTAAAAAAAGGAGAGATCTCACACAAATATATATA [GTGCAC_negctrl_site117]  9.65
35. TTTTTTTTTATTTGTTGTACGAGGTTTTAAAATTTT [XGTACX_site106]  9.65
36. GTAGGCATTAAAAAATGTACAAAATATTATGAATTG [XGTACX_site1615]  9.64
37. AAGAGGATACACAATGTGCACTTTTTTTTTTTTTTT [GTGCAC_site9415]  9.63
38. ATTATTTATATTTGGAGTACTTATAATATTTTTATA [XGTACX_site1289]  9.63
39. ATGATAAATATAAGTTGTACATATATCTATGTGCAT [XGTACX_site6010]  9.63
40. TTACAAATAATTTGTTGTACGCTTTTTTTCTTTTTT [XGTACX_site7199]  9.62
41. TAAACACATATATAGACATGCAACTAGTTTTTATAA [TGCATGCA_site474]  9.62
42. AATTTTTAGTATATAACATAAAATAAAATAAAATAA [GTGCAC_negctrl_site696]  9.59
43. TATATATATAATATATGTACTCATATTAAGAGATAC [XGTACX_site1354]  9.57
44. CGAAAAATATGTATGAGTACTTATATTTAAACTATA [XGTACX_site1911]  9.57
45. AAATCTTTGTGTGGATGTACTTTTATAAAAAAGAAT [XGTACX_site3830]  9.57
46. GAAAATAAAATATTAGTGCATTATTTGATCAATAAT  9.56
47. ATAAAAATTTATATATGTACTTAATTTTTAATTTTT [XGTACX_site7482]  9.54
48. TATGTTTTTGAATGAGTGCATTAAAATAAAACATTT  9.53
49. CATTCCTATTATTATACACACAAATTAAGAATTCAA [CACACA_site787]  9.51
50. AATGAGCTTTTTAAAAGTACTAAATATAAATAAATA [XGTACX_site3632]  9.5
51. TATTACTTAAATAAAAGTACATATAACATTTTAGTT [XGTACX_site196]  9.47
52. TAATAAGGAATTTATAGTACATATTCATATGTTTTA [XGTACX_site2331]  9.44
53. GTTAATATTTTTGGGGGTACTTAAAAAAAAAAAAAA [XGTACX_site1477]  9.39
54. TATTGTTATCTTTTATGTACTTAAAAAAATAAATTT [XGTACX_site4233]  9.37
55. TGTATAGTCTAAAGTTGTACAAAAAAAAAAAAAAAA [XGTACX_site5764]  9.31
56. TCTGTTCTTTTTTAATGTACAAGAAATATAAAATTC [XGTACX_site3600]  9.21
57. ATATTTATTTTATAAAGTACTAAAAAATATATTATA [XGTACX_site8522]  9.19
58. CTTTATATATTTTATTGTACTTAAAAAAAAAAAAAA [XGTACX_site2134]  9.15
